Assay results: patent US20200093786A1, “S[…] OF CANNABIS FOR TREATING MULTIPLE MYELOMA” (One World Cannabis LTD, priority 2014, published 2020)

System: RPMI8226 multiple myeloma (MM) human cell lines
Details: for IC50: Homo sapiens, RPMI-8226, read-out: dose that caused 50% of MM cell death; for survival of RPMIS MM cells: concentration of about 20 μM and higher

| SMILES | IC50 [µM] | survival of RPMIS MM cells |
| --- | --- | --- |
| C=C(C)[C@@H]1CCC(C)=C[C@H]1c1c(O)cc(CCCCC)cc1O [CBD, Cannabidiol] | 16 | about 50% |
| CCCCCc1cc(O)c2c(c1)OC(C)(C)[C@@H]1CCC(C)=C[C@@H]21 [THC, Tetrahydrocannabinol] | 22 | about 50% |
